# The supplement of paper PMC3334620
# Over roughly 33,000 sequences, “E-score (-0.5 to 0.5)” has its median near -0.04; the highest 2% begin near 0.36. Some of the results follow.
# Target: T1, Hmlalpha2 (UniProt P0CY09)
# T1 sequence: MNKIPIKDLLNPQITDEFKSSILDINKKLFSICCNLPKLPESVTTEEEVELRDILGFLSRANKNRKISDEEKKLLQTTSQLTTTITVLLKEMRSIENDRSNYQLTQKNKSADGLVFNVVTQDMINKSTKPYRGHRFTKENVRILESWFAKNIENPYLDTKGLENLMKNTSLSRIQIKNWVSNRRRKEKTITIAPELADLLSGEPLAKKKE
# Assay: PBM E-score (8-mer binding enrichment) (E-score (-0.5 to 0.5)); higher = stronger / more preferred TF binding; most listed sequences are background and not binding sites
# Settings: protein concentration: 200 nM; construct: GST-full length
# Procedure, shortened: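 The E-score, a modified Wilcoxon-Mann-Whitney statistic, was computed by the Universal PBM Analysis Suite for every ungapped eight-base word pooled with its reverse complement. Scans behind it were normalised with masliner after bound GST-tagged yeast transcription factors were detected with fluorescent anti-GST. The proteins, at about 100-200 nM, had been applied to universal all-10-mer Agilent arrays made double-stranded by primer extension.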
row,Sequence,PBM E-score
1,GGCCTCGA,-0.0711
2,CACCGACC,-0.0911
3,CAAGCAAG,-0.0478
4,AGACCGCA,-0.132
5,ACTGCGAT,-0.157
6,AATGTTAA,0.364
7,GGAGATCC,-0.228
8,TTGCAAAA,0.0115
9,AATGTCTA,0.219
10,CTAAGTTC,-0.06
11,AGGGCTGG,-0.192
12,AACATATA,0.286
13,GACCCGTC,-0.296
14,CGGGGGGA,-0.394
15,CATTTGGA,0.099
16,AGAGTTCA,-0.157
17,ATTACTAA,0.262
18,GGGGGCCA,-0.324
19,ACCCATTC,-0.176
20,ATACTATG,0.0473
21,ACATGCTG,0.377
22,ATAATGGA,-0.11
23,GGCAAGTA,0.196
24,AATAAAAC,0.21
25,CATGATTC,-0.0314

row,Sequence,PBM E-score
1,ACACAACC,0.305
2,GTCAGAAA,0.00281
3,CGTGCAGC,0.0274
4,GTATTCCA,0.227
5,CGAAGTGC,0.107
6,CCTAGGCG,-0.303
7,TTACTAAA,0.261
8,GACGGGGC,-0.364
9,CAACGTTA,0.226
10,AATTCACA,0.317
11,CTACACAC,0.391
12,CCCGTAGC,-0.202
13,AATAAGCG,-0.0762
14,CTTGCGCA,-0.0323
15,GTTACTCA,0.214
16,CCGACGGC,0.00516
17,CGGGATGC,-0.249
18,CGTGATGC,-0.176
19,GCGCATTA,0.12
20,AGATCTTA,-0.026
21,CTTTGCGC,0.0385
22,ATCAAGCG,-0.128
23,CATTTCGC,-0.0431
24,AAAATGAA,0.131
25,CGACGGAC,-0.102

row,Sequence,PBM E-score
1,GATGTGTA,0.38
2,CCATTGGA,-0.145
3,ACATGCGT,0.399
4,ACAATGTG,0.198
5,GTTTGAAA,0.0268
6,CGCTTACC,0.0166
7,GCCACATA,0.015
8,AAATGCGG,-0.197
9,CACCACCA,-0.188
10,CCTTAACG,0.125
11,CGAGGAAG,-0.216
12,ACCACGTA,0.254
13,GAAGGATC,-0.265
14,AGTGCGTA,0.202
15,GACAGTGC,-0.0346
16,ACTTCTCA,-0.0689
17,CAATACCG,-0.163
18,CGTGAGCA,-0.169
19,GTTTGGAA,0.0349
20,CGCTTCCA,-0.0766
21,ATTTTACC,0.188
22,CGCGACAC,0.0521
23,GGACAGAC,-0.112
24,ATAGGCGG,0.0365
25,CCTTTCAG,-0.171

row,Sequence,PBM E-score
1,CAAGTTAC,0.0968
2,GGAGCGCA,-0.338
3,CCTTATGA,-0.217
4,TCAGACCA,-0.122
5,GAACTAAA,0.128
6,AGCTTGAA,-0.0694
7,ATCATCTG,-0.0383
8,ACCATTTG,0.139
9,AAGATTTC,0.168
10,AACTATAT,0.199
11,AGTAGCTG,-0.0456
12,CGTGCTAG,0.124
13,GAGGCGTA,0.0657
14,CAGTCCCG,-0.196
15,CGTGTCAA,0.438
16,GCGATTAA,0.0172
17,ACGTGTGA,0.229
18,AACTCTTC,-0.0967
19,TAAACGTA,0.29
20,ATCGCGTA,0.368
21,ACTGTTCG,0.0673
22,ATAACGCC,0.134
23,AACCGGTG,-0.172
24,CTATCCCA,-0.145
25,ACCTATGG,-0.114

row,Sequence,PBM E-score
1,GAGAAACC,-0.0736
2,CCTCCTTA,-0.138
3,AGTAATTA,0.315
4,AGACGAGG,-0.331
5,CGGGAATC,-0.305
6,GCTGGGCC,-0.404
7,TATTCACA,0.297
8,CACTCGCG,-0.0838
9,TAGTTTGA,0.0225
10,CTCGTACA,0.167
11,CTGGTTAA,0.128
12,CCTCTTAG,-0.0666
13,ATGTGGAA,0.173
14,GGAATAAC,0.0659
15,CGGCCCAC,-0.155
16,GGCATCGA,-0.24
17,AATACACA,0.467
18,CCCTCCGC,-0.307
19,TAGCGCCA,-0.159
20,ACTTCAGA,-0.103
21,CGGTCAAC,0.147
22,GACAACCA,0.00963
23,CAACTGAG,0.0947
24,TAGGGATA,-0.135
25,GAAGCCGA,-0.259

row,Sequence,PBM E-score
1,AGACGCCG,-0.154
2,AGCGGCAG,-0.203
3,CCAATCAG,-0.323
4,CGTCACTA,-0.063
5,ACTAAGGC,-0.192
6,ACCTTTAG,-0.127
7,CCGTGTTA,0.44
8,ATGTACTA,0.397
9,ATAGAACA,0.164
10,CCTGTTAA,0.288
11,AGAGTGTA,0.0904
12,AAAGGTCT,-0.109
13,ATTTCCCG,-0.0394
14,ACGCGGAT,0.302
15,TAGAGGAA,-0.0993
16,AAAGCGCT,0.109
17,ATCACGCA,0.173
18,GTAGCGGA,-0.0459
19,CTGGTCGC,-0.127
20,CGTCGGGA,-0.116
21,ATTGGCAA,0.092
22,GGTTACCA,-0.0486
23,CGAGCAAC,0.0029
24,TCCATGAA,0.043
25,GACGCTGA,-0.00698

row,Sequence,PBM E-score
1,GCCCCCGC,-0.332
2,ACGGCCAT,-0.177
3,GCTTGACA,0.196
4,AACTGTGT,0.333
5,AGCAAGCA,-0.139
6,ATTGTTAA,0.269
7,CACCGCTA,-0.0146
8,CTGTTAAG,0.255
9,TCACGTAA,0.393
10,GTCGATTA,0.199
11,CGGCCAAA,0.0165
12,ACTTATTC,-0.00521
13,ACCCGGTC,-0.31
14,AAGCTTCG,-0.113
15,AAGTTGAT,0.0578
16,GAGGGTGC,-0.292
17,CCGGCTTC,-0.291
18,AGTGTCTG,-0.0202
19,ACTGATGC,-0.255
20,CCTCTCTC,-0.327
21,CATAATCA,0.192
22,TCGTGCAA,0.278
